# Among all 310,000 compounds or so, about 2,200 (0.71%) showed an effect of 50% or more. The effect is printed as a negative number. The list shows a part of the results.
# Target: human ether-à-go-go-related gene (hERG) potassium channel (human, UniProt Q12809)
# Assay: primary screen, population patch clamp on CHO cells stably expressing hERG
# Chain of human ether-à-go-go-related gene (hERG) potassium channel (Q12809 whole entry, looked up): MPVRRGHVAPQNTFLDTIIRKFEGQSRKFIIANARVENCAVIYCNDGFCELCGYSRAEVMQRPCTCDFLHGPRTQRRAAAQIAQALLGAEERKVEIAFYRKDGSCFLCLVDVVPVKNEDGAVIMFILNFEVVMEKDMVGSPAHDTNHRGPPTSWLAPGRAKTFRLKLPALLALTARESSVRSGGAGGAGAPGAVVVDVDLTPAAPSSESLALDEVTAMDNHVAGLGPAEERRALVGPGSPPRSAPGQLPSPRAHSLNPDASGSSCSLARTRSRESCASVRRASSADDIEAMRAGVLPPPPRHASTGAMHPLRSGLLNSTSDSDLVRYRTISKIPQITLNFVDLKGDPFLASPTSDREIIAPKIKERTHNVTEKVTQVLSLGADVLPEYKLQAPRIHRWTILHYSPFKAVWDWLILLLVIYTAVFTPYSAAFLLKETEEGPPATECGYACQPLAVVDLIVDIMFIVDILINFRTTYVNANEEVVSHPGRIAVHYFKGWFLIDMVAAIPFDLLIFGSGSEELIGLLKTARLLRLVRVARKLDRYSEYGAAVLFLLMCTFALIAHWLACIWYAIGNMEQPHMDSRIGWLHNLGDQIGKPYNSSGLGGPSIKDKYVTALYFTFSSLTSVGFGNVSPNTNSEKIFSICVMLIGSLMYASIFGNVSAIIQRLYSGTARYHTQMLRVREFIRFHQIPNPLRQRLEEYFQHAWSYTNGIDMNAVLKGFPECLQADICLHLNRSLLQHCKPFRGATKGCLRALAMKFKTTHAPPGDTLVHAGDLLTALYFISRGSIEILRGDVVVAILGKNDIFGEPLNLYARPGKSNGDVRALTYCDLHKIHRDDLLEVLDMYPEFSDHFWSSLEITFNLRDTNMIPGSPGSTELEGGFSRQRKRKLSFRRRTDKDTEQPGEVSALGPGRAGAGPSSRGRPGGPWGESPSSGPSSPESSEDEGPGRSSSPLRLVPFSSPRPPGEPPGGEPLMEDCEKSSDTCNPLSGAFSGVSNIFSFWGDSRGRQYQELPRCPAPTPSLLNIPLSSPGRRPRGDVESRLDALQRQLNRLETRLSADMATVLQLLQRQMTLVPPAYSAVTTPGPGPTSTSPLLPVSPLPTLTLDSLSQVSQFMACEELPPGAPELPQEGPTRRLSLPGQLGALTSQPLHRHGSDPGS
row,SMILES,"hERG current change (%, negative = inhibition) at 1uM [%]"
1,CCCCCCOc1ccc(C(=O)O)cc1,11.9
2,Cc1ccc(NC(=O)CSc2nnc(NC(=O)C3CC3)s2)cc1C,13.6
3,CN1CCN(C(=O)CN(c2cccc(Cl)c2)S(=O)(=O)c2ccccc2)CC1,5.16
4,O=C1C2CC=C(Cl)CC2C(=O)N1c1ncn[nH]1 (stereo not drawn),21.3
5,Cc1ccc(S(=O)(=O)NCCCCCC(=O)NC(C)(C)CO)cc1,13.6
6,CCOC(=O)Nc1ccc2c(c1)N(C(=O)OC)c1ccccc1CC2,6.09
7,O=C(CC1NCCNC1=O)NC1Cc2ccccc2C1 (stereo not drawn),9.18
8,COC(=O)c1ccc(NC(C)=O)o1,4.12
9,Cc1ccc(NC(=O)CC2Oc3ccccc3NC2=O)c(C)c1 (stereo not drawn),11.3
10,COc1ccc(C(c2nnnn2C(C)(C)C)N2CCN(C)CC2)cc1OC (stereo not drawn),5.69
11,O=C(N/N=C/c1cccs1)c1n[nH]c2c1CCCC2,20
12,O=C(/C=C/c1ccccc1Cl)c1ccccc(=O)c1O,12.5
13,Cc1cc(-c2ccccc2)c2c3c(cn2n1)c(=O)n(C)c(=O)n3C,8.33
14,COCc1cc(C)nc(OCC(=O)N/N=C\c2cc(C)n(-c3cccc(C(F)(F)F)c3)c2C)c1C#N,9.35
15,Cc1ccc(CNC(=O)c2cc(S(=O)(=O)N3CCOCC3)cn2C)cc1,1.03
16,CCOC(=O)[C@H]1[C@H]2COc3ccc(Cl)cc3[C@@H]2N2C(=O)c3cc(C)ccc3NC(=O)[C@@]12C,9.03
17,O=C(c1ccco1)N1CCN(C(=S)Nc2ccc(F)cc2)CC1,9.43
18,CC1CCCN(S(=O)(=O)c2ccc3c(c2)n(C)c(=O)c(=O)n3C)C1 (stereo not drawn),9.16
19,O=C(Nc1cccc(C(=O)N2CCN(c3cccc(Cl)c3)CC2)c1)c1ccccc1,-2.12
20,CCn1cc(C(=O)OC)c(=O)c2ccc(C)nc21,5.49
21,CN(C)S(=O)(=O)c1ccc(Cl)c(-c2nnc3n2CCCCC3)c1,7.11
22,CCOc1ccccc1NC(=O)c1nnn(CC(=O)Nc2cc(C)cc(C)c2)c1N,14.1
23,NC(=O)c1ccc[n+](CCC[n+]2cccc(C(N)=O)c2)c1.[Br-],15

row,SMILES,"hERG current change (%, negative = inhibition) at 1uM [%]"
1,COc1ccc(/C=N/Nc2ccccn2)cc1O,6.67
2,COc1ccc(-c2cc(=O)n(-c3ccc([N+](=O)[O-])cc3)[nH]2)cc1,-3.01
3,COn1c(=O)c(=O)n(OC)c2ccccc21,1.62
4,O=C(COC(=O)C1C2CC3OC(=O)C1C3C2)Nc1ccccc1 (stereo not drawn),10.4
5,CC(C)c1c(O)nc(SCc2ccccc2)[nH]c1=O,15.3
6,N#C/C(=C\c1cccs1)C(=O)c1ccccc1,12.6
7,Cc1nn(-c2cccc(C(F)(F)F)c2)c(Cl)c1/C=N/Nc1cccc(C(=O)O)c1,12.3
8,O=C(O)/C=C/C(=O)NCCC(c1ccccc1)c1ccccc1,16.7
9,CCc1nnc(NC(=O)CSc2nnc(-c3ccco3)n2CC)s1,9.88
10,CCOc1ccc(/C=C(\C#N)C(=O)Nc2ccccn2)cc1,8.95
11,NS(=O)(=O)c1ccc(CCNc2nc(CN3CCOCC3)nc3sc4c(c23)CCC4)cc1,3.28
12,O=C(CCl)Nc1cc2[nH]c(=O)[nH]c2cc1Br,12.7
13,CC(C)(C)OC(=O)[C@H](CCCC[NH3+])NC(=O)c1nc[nH]c1C(=O)NCCCCC[NH3+].[Cl-],4.8
14,COc1ccc(OC)c(-c2csc(NC(=O)c3ccccc3F)n2)c1,12
15,COc1ccc(Oc2nc(-c3cccnc3)nc3ccccc23)cc1,11.1
16,CCCCc1nnc(NC(=O)C2CCN(c3ncnc4sc(C)c(C)c34)CC2)s1,16.7
17,O=C(CCc1nnc(Cc2ccc3c(c2)OCO3)o1)NCCc1ccccc1Cl,10
18,COc1cc(/C(C)=N/NC(=O)c2ccc(CSc3nncn3C)cc2)cc(OC)c1OC,5.47
19,CC(C)c1ccc(-c2csc3nc[nH]c(=O)c23)cc1,12.9
20,COc1ccc(N(CC(=O)Nc2ccc3c(c2)OCO3)S(=O)(=O)c2ccccc2)cc1,9.01
21,O=C(O)C1CCN(c2ccccc2[N+](=O)[O-])CC1,3.56
22,COc1ccc2c(c1)CCc1c(C(=O)NCCc3ccc(OC)c(OC)c3)noc1-2,0.875
23,CSc1ccc(S(=O)(=O)NCCCn2ccnc2)cc1,4.06

row,SMILES,"hERG current change (%, negative = inhibition) at 1uM [%]"
1,O=C(c1cc2cc(Br)ccc2o1)N1CCN(c2ccccc2)CC1,11.3
2,O=C(NCCCn1ccnc1)C(=O)NCC1OCCN1S(=O)(=O)c1ccc(Br)cc1 (stereo not drawn),12
3,O=c1cc(/N=C/c2coc3c(ccc4ccccc43)c2=O)[nH]c(=S)[nH]1,9.15
4,COc1ccc(C(=O)NC(C)Cc2cnccn2)cc1OC1CCN(C(C)C)CC1 (stereo not drawn),13.1
5,CC(CS(=O)(=O)c1ccccc1[N+](=O)[O-])N1CCOCC1 (stereo not drawn),5.44
6,CC1CC(=O)N(c2ccc(NCc3ccccc3Cl)c([N+](=O)[O-])c2)C1=O (stereo not drawn),5.29
7,O=[N+]([O-])c1cccc(CN(CCO)Cc2ccccc2)c1,1.48
8,c1ccc(OCc2nc3ccccc3s2)cc1,8.74
9,CCCCOc1ccc(C(=O)CCN2CCOCC2)cc1.Cl,4.11
10,CCn1c(CC(=O)Nc2ccc(F)cc2)nnc1SCC(=O)Nc1nncs1,1.78
11,Cc1cccc(NC(=O)Cn2nc(-c3cccs3)ccc2=O)c1C,13.2
12,CC(=O)Nc1ccc(C(=S)NCCCO)cc1,11.3
13,Cc1c(CCN)ccc2c1[nH]c1ccccc12,13.8
14,O=C1N(CCCCN2C(=O)C3(OCCO3)c3ccccc32)c2ccccc2C12OCCO2,7.7
15,O=C(NNC1=NS(=O)(=O)c2ccccc21)C1CC(=O)N(c2ccccc2)C1 (stereo not drawn),6.86
16,CN(C)c1ccc(/C=C/c2nc3ccccc3c(=O)[nH]2)cc1,16.1
17,COc1ccc(/C=C/C(=O)O)cc1S(=O)(=O)Nc1ccc2c(c1)OCO2,12.7
18,CN(C)c1ccc(NC(=S)NC(=O)/C=C/c2ccc(Cl)cc2)cc1,6.65
19,COc1ccc2c(c1)c(=O)oc1c(C)c(OC(C)C(=O)N[C@@H](Cc3c[nH]c4ccc(O)cc34)C(=O)O)ccc12 (stereo partly drawn),19.3
20,CC1CCN(C(=O)CSc2nnc(CNC(=O)c3ccc(F)cc3)o2)CC1,2.35
21,NC(=O)CC(NC(=O)Cc1ccc(Cl)cc1)c1ccc(NC2CCCCC2)c([N+](=O)[O-])c1 (stereo not drawn),9.26
22,Cc1cc(O)c(C2=Nc3ccccc3SC(c3ccc(Cl)cc3)C2)c(=O)o1 (stereo not drawn),12.5
23,CNc1nc2c(c(=O)[nH]c(=O)n2C)n1CCCc1ccccc1,19.2

row,SMILES,"hERG current change (%, negative = inhibition) at 1uM [%]"
1,COc1ccc(-c2c(C)nn3c(NC4CCCC4)cc(C)nc23)cc1OC,-18.6
2,Cc1c(F)cccc1NC(=O)CCCCCC1NC(=O)NC1C (stereo not drawn),4.28
3,Cc1ccc(C(=O)NCC(=O)OCC(=O)Nc2ccc(Cl)cc2C(F)(F)F)cc1C,3.41
4,O=C(NCCCN1CCOCC1)c1nn(-c2ccccc2)c(=O)c2ccccc12,9.21
5,COC(=O)c1cc(Br)c(=O)n(Cc2ccco2)c1,9.31
6,Cc1ccc(OC(=O)CCNC(=O)c2ccccc2Cl)c(Br)c1,-0.579
7,CC(C)(Cc1ccccc1)/[N+]([O-])=C\c1ccc(C(F)(F)F)cc1,7.04
8,Cc1ccc(-c2nnc(-c3ccc(Br)cc3)o2)o1,6.38
9,Cc1oc(C(C)(C)C)cc1C(=O)NCC(=O)NCC(=O)O,7.69
10,CC(=O)C(Cc1ccccc1)NC(=O)CN1CCc2ccccc2C1 (stereo not drawn),1.44
11,COc1cccc(C2Oc3ccccc3C3CC(c4cccs4)=NN32)c1 (stereo not drawn),13.9
12,CCc1ccc(N(C(=O)CNC(=O)c2ccco2)C(C(=O)NC2CCCC2)c2ccncc2)cc1 (stereo not drawn),5.85
13,Cc1ccccc1NC(=O)c1cccnc1,18.2
14,CCCNS(=O)(=O)c1ccc(CCC(=O)NCc2cccnc2)cc1,22.5
15,Cn1c(=O)n(C)c2cc(S(=O)(=O)N3CCCCC3)ccc21,15.1
16,CCOc1cccc(-c2c(C(=O)N/N=C/c3cccs3)nnn2-c2nonc2N)c1,15.1
17,CCOc1ccc(S(=O)(=O)N(CC)CC(=O)NCc2cccnc2)cc1C,4.6
18,Cc1cccc(NCC(O)Cn2cnc3c2c(=O)n(C)c(=O)n3C)c1 (stereo not drawn),6.47
19,COc1ccnc(Oc2ccc(C)cc2)c1C#N,7.87
20,COc1nc(NCCc2ccc(OC)c(OC)c2)nc(OC)n1,-5.49
21,CNC(=O)CSc1nnc(-c2cccnc2)n1-c1ccc(C)cc1,15.1

# Reference: publication PMC4336329 (PLoS ONE, 2015)
